Hit rate of the full screen: of about 310,000 compounds, about 14,000 (4.5%) showed an effect of 50% or more. The effect is printed as a negative number. Some of the results follow.
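Note: peak tail current of the secondary pulse compared with the same well before compound.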

In the test the target is human ether-à-go-go-related gene (hERG) potassium channel (human, UniProt Q12809). As to the kind of experiment: primary screen, population patch clamp on CHO cells stably expressing hERG.
Chain of human ether-à-go-go-related gene (hERG) potassium channel (Q12809 whole entry, looked up): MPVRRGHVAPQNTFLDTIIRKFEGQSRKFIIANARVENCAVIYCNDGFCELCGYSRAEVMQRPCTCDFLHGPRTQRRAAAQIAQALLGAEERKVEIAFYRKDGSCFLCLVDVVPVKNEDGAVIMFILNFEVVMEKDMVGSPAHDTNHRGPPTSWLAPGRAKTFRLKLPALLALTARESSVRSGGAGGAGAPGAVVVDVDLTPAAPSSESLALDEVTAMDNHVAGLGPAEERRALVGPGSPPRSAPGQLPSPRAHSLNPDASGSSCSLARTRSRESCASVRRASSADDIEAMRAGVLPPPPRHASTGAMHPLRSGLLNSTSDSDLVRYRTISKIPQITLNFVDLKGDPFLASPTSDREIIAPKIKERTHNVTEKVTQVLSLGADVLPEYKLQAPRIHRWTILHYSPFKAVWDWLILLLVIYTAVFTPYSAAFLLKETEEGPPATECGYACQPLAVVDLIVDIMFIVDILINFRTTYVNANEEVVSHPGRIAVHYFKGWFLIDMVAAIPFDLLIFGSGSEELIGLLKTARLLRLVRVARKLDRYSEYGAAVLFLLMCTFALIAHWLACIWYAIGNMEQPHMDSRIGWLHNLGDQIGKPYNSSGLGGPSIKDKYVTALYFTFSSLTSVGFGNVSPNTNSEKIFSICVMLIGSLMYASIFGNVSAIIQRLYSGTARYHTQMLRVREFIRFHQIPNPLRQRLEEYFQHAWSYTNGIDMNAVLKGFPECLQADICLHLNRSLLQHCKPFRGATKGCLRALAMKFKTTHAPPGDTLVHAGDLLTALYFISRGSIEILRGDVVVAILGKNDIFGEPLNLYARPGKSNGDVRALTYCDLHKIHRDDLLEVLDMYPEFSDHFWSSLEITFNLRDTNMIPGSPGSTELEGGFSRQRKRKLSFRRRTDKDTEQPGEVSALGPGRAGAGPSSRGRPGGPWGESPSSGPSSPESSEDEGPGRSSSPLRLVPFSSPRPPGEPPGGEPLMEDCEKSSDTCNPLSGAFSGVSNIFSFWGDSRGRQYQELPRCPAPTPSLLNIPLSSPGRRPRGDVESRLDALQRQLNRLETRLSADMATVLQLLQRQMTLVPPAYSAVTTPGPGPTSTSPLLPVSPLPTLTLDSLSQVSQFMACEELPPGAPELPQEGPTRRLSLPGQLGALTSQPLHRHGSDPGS
For `CCCCCCC1C(C#N)=C(N)OC2=C1C(=O)CCC2` (stereo not drawn), the “hERG current change (%, negative = inhibition) at 10uM” value is reported as -12%.
With `NNc1nc(-c2ccccc2)c2ccccc2n1`, the “hERG current change (%, negative = inhibition) at 10uM” value amounted to 3.34%.
`COC(=O)c1ccc2c(=O)n3c(nc2c1)SCC(c1ccccc1)=N3`: the “hERG current change (%, negative = inhibition) at 10uM” value was -2.12%.
Under `C=CCn1nc2ccccc2c1OC` stands 3.76%; under `Cc1cc(C(=O)COC(=O)c2ccc3c(c2)NC(=O)CS3)c(C)n1CC1CCCO1` (stereo not drawn), 1.05%.
As for `CCOc1ccccc1Nc1nnc(SC(C)C(=O)Nc2nc(-c3ccccc3)cs2)s1` (stereo not drawn), the “hERG current change (%, negative = inhibition) at 10uM” value was found to be 1.46%.
In the case of `COn1c(SC2CCCCC2)nc2ccccc2c1=O`, the “hERG current change (%, negative = inhibition) at 10uM” value is given as -7.68%.
As to `CC(=O)c1c(C)[nH]c(C(=O)OCC(=O)Nc2cccc(S(=O)(=O)N(C)C)c2)c1C`, the “hERG current change (%, negative = inhibition) at 10uM” value worked out at 14.5%.
As to `Cc1cc(SCC(=O)OCC(=O)N2CCN(C(=O)c3ccco3)CC2)c(C)cc1Br`, the “hERG current change (%, negative = inhibition) at 10uM” value is given as -50.2%.
For `OC1OC[C@@H](O)[C@H](O)[C@H]1O` (stereo partly drawn), the “hERG current change (%, negative = inhibition) at 10uM” value came out at 15.6%.
The figure for `O=S1(=O)N=C(Oc2ccccc2)c2ccccc21` is 5.14%; for `CCCSc1cc(N2CCN(C)CC2)nc(-c2ccc(OC)cc2)n1.Cl` it is -29.2%; for `COc1ccccc1NC(=O)c1cc(S(=O)(=O)N2CCC3(CC2)OCCO3)ccc1F` it is -4.73%.
The figure for `CCOC(=O)c1cc2sccc2n1CC(=O)Nc1ccc2c(c1)OCCO2` is 18.8%; for `O=C(O)c1c[nH]c(=O)c2ccccc12` it is 5.82%; for `O=S(=O)(NCCc1ccccc1)c1ccc(S(=O)(=O)N2CCCCC2)cc1` it is 15.1%.
Under `Cc1ccc(-c2cc(C(=O)N/N=C/c3ccccc3O)n[nH]2)o1` stands 26.9%; under `COc1cc(C2C(C(=O)c3cc4ccccc4o3)=C(O)C(=O)N2c2cc(C)on2)cc(OC)c1OC` (stereo not drawn), 24.6%.
Consider `O=C(Nc1cc(Cl)ccc1O)C1CC(c2ccccc2O)=NO1` (stereo not drawn), for which the “hERG current change (%, negative = inhibition) at 10uM” value is -5.36%.
The figure for `NC(=S)N/N=C1\CC(c2ccc3c(c2)OCCCO3)Oc2ccc(F)cc21` (stereo not drawn) is 6.23%; for `CN(C)S(=O)(=O)Nc1ccc(Br)cc1F` it is 11.7%.
Regarding `CN1C(=O)S/C(=C\c2ccc(-n3cncn3)cc2)C1=O`, the “hERG current change (%, negative = inhibition) at 10uM” value was -3.72%.
Take `COC(=O)C1CCN(C(=O)c2ccc(NC(C)=O)cc2)CC1`: the “hERG current change (%, negative = inhibition) at 10uM” value stood at 1.4%.
Turning to `COCCNC(=O)C(c1cccc(OC)c1)N(C(=O)Cn1nnc2ccccc21)c1cccnc1` (stereo not drawn), the “hERG current change (%, negative = inhibition) at 10uM” value is 7.66%.
`CCN(CC)S(=O)(=O)c1ccc(Cl)c(C(=O)Nc2nncs2)c1`: the “hERG current change (%, negative = inhibition) at 10uM” value amounted to 14.4%.
The figure for `C[C@H](CCC(=O)O)[C@H]1CC[C@H]2[C@@H]3CC[C@@H]4C[C@H](O)CC[C@]4(C)[C@H]3C[C@H](O)[C@]12C` is 11.8%; for `Cc1ccc(CN2C(=O)N/C(=C/c3ccc4c(c3)n(C)c(=O)n4C)C2=O)cc1` it is 2.13%; for `Cc1cccc(N(CC(=O)N2CCCC2)S(C)(=O)=O)c1` it is 16%.
Under `C=C(C)C(=O)Nc1cccc(C2=NOC3(C2)C[C@@H](C(N)=O)N(C(=O)c2ccc(OC)cc2)C3)c1` (stereo partly drawn) stands 5.4%; under `O=C(CCc1nnc(-c2ccccc2)o1)c1ccc(Cl)cc1`, 6.41%; under `CSc1nc(SCC(=O)NCc2ccco2)c2c3c(sc2n1)CN(C)CC3`, -0.986%.
Regarding `Cc1c(CCC(=O)O)c(=O)oc2cc3occ(-c4ccc(F)cc4)c3cc12`, the “hERG current change (%, negative = inhibition) at 10uM” value was -10.4%.
Under `Cc1ccc(C(=O)Nc2cnc3sc(C)nn3c2=O)cc1` stands 9.63%; under `Cc1cc(C(=O)OCC(=O)Nc2cc(Cl)ccc2C)c(C)o1`, 0.501%.
Under `Cc1cc(NC(=O)CSc2ccccc2)no1` stands 10.2%; under `CCc1nn(CC(=O)NCCCN2CCOCC2)c(=O)c2cc3cc(F)ccc3n12`, -5.09%.
Under `CC(=O)Nc1ccc(N=Cc2c(O)c3ccccc3oc2=O)cc1` stands 15%; under `CC(C)CN1CCC(=O)N([C@H](CSc2ccc(Br)cc2)c2ccccc2)CC1`, -63.9%; under `COc1ccc(S(=O)(=O)N2CCC(C(=O)NCc3ccc(C)cc3)CC2)cc1`, -29.7%.
With `CCOC(=O)C1CCCN(C(=O)c2cc(S(=O)(=O)N3CCCCCC3)ccc2OC)C1` (stereo not drawn), the “hERG current change (%, negative = inhibition) at 10uM” value is -17.4%.
The figure for `Cc1cccc(C)c1-n1c(C)cc(/C=C2\C(=O)NN(c3ccccc3)C2=O)c1C` is 2.58%; for `Cc1c(CC(=O)NCCCC(=O)O)c(=O)oc2cc3oc4c(c3cc12)CCCC4` it is 10.2%.
Under `CC(=O)c1cccc(NC(=O)CSCc2ccc(Br)cc2)c1` stands 11.1%; under `COC(=O)c1c(NC(=O)c2cccnc2Cl)sc(C(=O)N(C)C)c1C`, -6.44%.
Under `Cc1ccc(NC(=O)NC2CCCCC2)cc1Cl` stands 2.56%; under `Cc1cc(Br)cc(Cl)c1OC(=O)c1cnccn1`, 11.3%; under `CC1(C)C(=O)Nc2ccccc2N1C(=O)COC(=O)c1ccc(Cl)c(S(=O)(=O)NCc2ccccc2)c1`, -12.8%.
Take `COCc1cc(=O)[nH]c(-c2ccccc2OC(F)(F)F)n1`: the “hERG current change (%, negative = inhibition) at 10uM” value is listed as -38.2%.
Take `O=C(COc1cc(Cl)c(Cl)cc1Cl)NCCN1CCOCC1`: the “hERG current change (%, negative = inhibition) at 10uM” value is reported as -7.1%.
Regarding `Cn1c([N+](=O)[O-])cnc1COC(N)=O`, the “hERG current change (%, negative = inhibition) at 10uM” value is given as 12.6%.
Under `CC#CC(=O)N1CCC(Oc2cccc(C(=O)NCc3ccccn3)c2)CC1` stands 12.4%; under `Cn1cccc1/C=N/N1CCN(Cc2cccc3ccccc23)CC1`, -4.35%.
On to `C=C(C)Cn1c(SCC(=O)O)nnc1-c1ccccc1`, for which the “hERG current change (%, negative = inhibition) at 10uM” value was determined as 4.41%.
On to `O=C(N/N=C/c1cccnc1)c1ccc([N+](=O)[O-])cc1Cl`, for which the “hERG current change (%, negative = inhibition) at 10uM” value is given as -11.1%.
The figure for `CCOn1c(=O)c(=O)n(O)c2ccccc21` is 35.7%; for `CCc1ccc(NC(=O)CCc2c(C)nn(-c3ccc(N4CCCCC4)nn3)c2C)cc1` it is -16.8%; for `CCCCn1nc2cc(C(=O)NC3CCc4ccccc43)ccc2c1OCC` (stereo not drawn) it is -33.4%.

Source of the values: PMC4336329 (PLoS ONE, 2015).
